From paper PMC4336329 (PLoS ONE, 2015)
Hit rate of the full screen: of about 310,000 compounds, about 14,000 (4.5%) showed an effect of 50% or more. Effects have a minus sign here. The list shows a part of the results.

Target: human ether-à-go-go-related gene (hERG) potassium channel (human, UniProt Q12809)
Assay: primary screen, population patch clamp on CHO cells stably expressing hERG
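Also: peak tail current of the secondary pulse compared with the same well before compound.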

human ether-à-go-go-related gene (hERG) potassium channel, sequence (Q12809 whole entry, looked up): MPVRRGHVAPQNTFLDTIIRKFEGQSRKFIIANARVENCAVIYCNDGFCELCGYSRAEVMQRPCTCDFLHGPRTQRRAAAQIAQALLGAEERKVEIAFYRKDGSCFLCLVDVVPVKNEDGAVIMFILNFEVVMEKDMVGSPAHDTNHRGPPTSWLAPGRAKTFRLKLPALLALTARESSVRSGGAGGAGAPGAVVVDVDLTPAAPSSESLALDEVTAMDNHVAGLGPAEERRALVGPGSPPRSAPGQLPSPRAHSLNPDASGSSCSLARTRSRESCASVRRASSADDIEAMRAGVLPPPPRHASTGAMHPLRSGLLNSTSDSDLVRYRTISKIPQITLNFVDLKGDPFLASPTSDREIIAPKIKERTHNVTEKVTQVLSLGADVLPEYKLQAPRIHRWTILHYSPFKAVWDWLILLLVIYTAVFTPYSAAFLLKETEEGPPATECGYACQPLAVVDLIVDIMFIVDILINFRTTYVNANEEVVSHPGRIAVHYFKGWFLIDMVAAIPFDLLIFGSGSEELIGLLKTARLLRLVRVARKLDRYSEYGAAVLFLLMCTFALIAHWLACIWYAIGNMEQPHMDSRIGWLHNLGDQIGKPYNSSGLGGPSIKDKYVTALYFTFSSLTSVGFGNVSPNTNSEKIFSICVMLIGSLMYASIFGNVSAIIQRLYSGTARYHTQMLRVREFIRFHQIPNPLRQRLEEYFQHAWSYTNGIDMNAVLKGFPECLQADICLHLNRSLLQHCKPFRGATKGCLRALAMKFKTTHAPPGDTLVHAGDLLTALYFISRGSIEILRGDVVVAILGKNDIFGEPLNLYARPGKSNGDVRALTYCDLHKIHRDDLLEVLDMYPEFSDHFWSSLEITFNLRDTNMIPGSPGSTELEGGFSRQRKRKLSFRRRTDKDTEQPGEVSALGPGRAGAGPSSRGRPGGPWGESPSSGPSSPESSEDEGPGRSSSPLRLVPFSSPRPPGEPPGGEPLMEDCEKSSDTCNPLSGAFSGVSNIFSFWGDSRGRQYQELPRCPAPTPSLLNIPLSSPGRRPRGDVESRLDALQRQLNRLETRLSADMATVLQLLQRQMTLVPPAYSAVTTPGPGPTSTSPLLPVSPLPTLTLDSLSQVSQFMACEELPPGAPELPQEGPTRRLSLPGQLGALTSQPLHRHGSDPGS

SMILES | hERG current change (%, negative = inhibition) at 10uM
O=C(NCc1ccco1)c1ccc2c(=O)n(-c3ccccc3)c(=O)n(Cc3cccc(F)c3)c2c1 | -4.93%
C#CC[N+](C)(C)CC#Cc1ccc(Cl)cc1.[Br-] | 0.00248%
O=C(NNC(=O)c1cccs1)c1ccncc1 | 29.7%
CCOC(=O)Cc1csc(NC(=O)NC2(C(F)(F)F)Oc3ccccc3O2)n1 | 5.19%
COc1ccc(/C=N/NC(=O)c2ccc(N(C)S(=O)(=O)c3ccccc3)cc2)c(OC)c1 | 6.66%
CCCC(=O)Nc1ccc(C(=O)N/N=C/c2cccnc2)cc1 | -8.24%
CC(C)N(Cc1nc2ccccc2[nH]1)C(C)C | 2.07%
CC(C)(C)C(C(=O)O)N1CCS(=O)(=O)CC1 (centres unmarked) | 12.3%
CS(=O)(=O)c1ccc2nc(NC(=O)CCC(=O)c3cccs3)sc2c1 | 1.07%
CCOC(=O)c1cnc(Nc2nc3ccccc3o2)nc1CSC(=S)N(CC)CC | 13.3%
CCOc1ccc(-n2c(-c3ccccc3)c[nH]c2=S)cc1 | 20.6%
CCOc1ccccc1NC(=O)CCc1ccc(C)o1 | -3.46%
CCOC(=O)C1(Cc2ccccc2C)CCCN(C(=O)CCC(=O)OC)C1 (centres unmarked) | 14.9%
O=C(CSc1nc(-c2ccccc2Cl)ns1)Nc1ccc2c(c1)OCO2 | -13.4%
Cc1cc(C)n(-c2cc(C(C)(C)C)nc3c(-c4ccccc4)cnn23)n1 | 14.6%
O=C(NNC(=S)NC(=O)c1cccnc1)c1ccccc1 | 11.3%
CCC(C)(C)NC(=O)CN(C(=O)C(=O)Nc1ccc2c(c1)OCCO2)C1CC1 | 15.4%
N/C(=N\OC(=O)c1ccc(Br)cc1)c1ccccc1 | 4.79%
CS/C(=C\C(=O)c1ccco1)Nc1ccccc1Cl | 3.23%
O=C1/C(=C\c2ccccn2)SC(=S)N1c1ccc(S(=O)(=O)Nc2nccs2)cc1 | -12.1%
CCOCCCNC(=O)C(NC(=O)Cc1cccs1)c1ccc(C)cc1 (centres unmarked) | 8.53%
CCOc1cc(S(=O)(=O)NCc2ccccc2)ccc1F | -10.3%
CCOC(=O)c1c(C)nc2ncccn12 | -5.18%

SMILES | hERG current change (%, negative = inhibition) at 10uM
CCNC(=S)Nc1cccc([N+](=O)[O-])c1 | -2.24%
COc1ccc(C(CC(=O)NCc2ccccc2)Sc2n[nH]c(-c3ccc(Cl)cc3)n2)cc1 (centres unmarked) | 15.5%
O=c1c2ccccc2[nH]c(=S)n1CCCN1CCN(c2ccccc2)CC1 | -19.7%
O=c1[nH]nnc2sc3c(c12)CCCC3 | -3.79%
CCOCCCNC(=O)c1ccc(OC(C)=O)cc1 | 0.348%
Cc1ccc(NC(=O)CSc2ccc(S(=O)(=O)N3CCCC3)cn2)cc1F | 4.89%
CN1C(=O)CSc2ccc(NC(=O)N3CCOCC3)cc21 | -27.4%
O=C(Nc1ccccc1N1CCN(C(=O)c2ccccc2)CC1)c1ccc(Br)o1 | -63.5%
CC(C)CC(=O)NC(=S)Nc1ccccc1F | 10.1%
Cc1ccc(NC(=O)CCc2c[nH]c3ccccc23)nc1 | -12.7%
Cc1cc(Cl)ccc1OCCCC(=O)OCC(=O)Nc1cccc(S(N)(=O)=O)c1 | -27.1%
CCOc1ccc(NC(=O)c2sccc2-n2cccc2)cc1 | 13.8%
COc1ccc(N2CCN(C(=O)Cn3ncc4c([nH]c5ccccc54)c3=O)CC2)cc1 | 9.02%
CCCCCCn1c(=O)c(F)cn(Cc2ccc(OC)c([N+](=O)[O-])c2)c1=O | -40.3%
C[C@H](O)[C@@]1(O)CC[C@H]2[C@@H]3CC[C@@H]4C[C@H](O)CC[C@]4(C)[C@H]3CC[C@@]21C | -0.0961%
C[C@H](NC(=O)[C@H]1N2C(=O)c3ccccc3C2SC1(C)C)C(=O)N1CCCCC1 (some centres unmarked) | 14.9%
Cc1cc(C)c(NC(=O)CSc2nc(COc3ccccc3)nc3ccccc23)c(C)c1 | 12.4%
CCN(CC)C(=O)CSc1nc(-c2ccco2)cc(C(F)(F)F)c1C#N | 15%
CSC1=NCCN1C(=O)c1cccs1 | 10.1%
O=C(c1ccccn1)c1cc2ccccc2n1S(=O)(=O)c1ccccc1 | 7.97%
COc1ccc(C2=CC(=O)C[C@H](c3ccc(F)cc3)C2)c(F)c1F | 2.81%
CN(C)S(=O)(=O)c1cccc(C(=O)OCC(=O)NC2CCCc3ccccc32)c1 (centres unmarked) | -3.61%
CN1C(=O)C(C2c3ccccc3C(=O)N2Cc2ccc([N+](=O)[O-])cc2)C(=O)N(C)C1=O (centres unmarked) | -22.1%

SMILES | hERG current change (%, negative = inhibition) at 10uM
COc1ccc(NC(=O)C2CC(c3ccccc3Cl)=NO2)cc1 (centres unmarked) | 1.54%
COc1ccc(-c2nnn(Cc3ccccc3F)n2)cc1 | -22.2%
CCn1nc(NS(=O)(=O)c2ccccc2[N+](=O)[O-])c2cc3ccc(C)cc3nc21 | 6.61%
O=C(NCCc1cccs1)C1CC(c2cccc(F)c2)=NO1 (centres unmarked) | -15.3%
Cc1cc(NC(=O)COC(=O)CNS(=O)(=O)c2ccc(C)c(C)c2)no1 | 32.9%
CC[C@H](C)[C@@H](C(=O)NCCCCCCCCCCC(=O)N1CCNCC1)n1cc(CCCCN=C(N)N)nn1 | 12.7%
c1ccc2cc(CN3CCOCC3)ccc2c1 | 1.34%
COc1ccc(NC(=O)N(Cc2cccs2)Cc2cc3cc4c(cc3[nH]c2=O)OCO4)cc1 | 0.798%
Cn1c(O)c(C=Nc2ccccc2-c2ccccc2)c(=O)n(C)c1=O | 4.4%
Cc1nc2ccccc2c(=O)n1NC(=O)COc1ccccc1 | -11.8%
Cc1cc(C(=O)NNC(=S)NCC(C)C)no1 | 2.76%
Cc1cccn2c(=O)c3cc(C(=O)NCc4cccnc4)c(=N)n(C(C)C)c3nc12 | -69.4%
Cc1onc(-c2ccccc2Cl)c1C(=O)OCC(=O)Nc1cccc(S(=O)(=O)N(C)C)c1 | 2.08%
CCOC(=O)N1CCN(c2cc(N)c([N+](=O)[O-])cc2F)CC1 | 3.94%
COc1ccc(/C=N/NC(=O)c2ccccc2O)cc1COc1ccccn1 | -11.6%
COc1ccc(C2C(C(=O)Nc3ccccc3)=C(C)N=C3SCC(=O)N32)cc1 (centres unmarked) | -12.8%
O=C(N/N=C/c1cccs1)c1cc(-c2ccncc2)nc2ccccc12 | -27.1%
O=[N+]([O-])c1ccc(CSc2ccc(S(=O)(=O)N3CCCC3)cn2)cc1 | -32.6%
COc1ccc(NC(=O)C(c2cc3c(cc2[N+](=O)[O-])OCO3)N(C)C)cc1 (centres unmarked) | -5.23%
Cc1cc(C)nc(/N=C2\NC(=O)CC(C(=O)O)N2c2ccc(C)c(C)c2)n1 (centres unmarked) | 12.9%
O=C1CC(C(=O)N(c2ccc(F)cc2)C(C(=O)NC2CCCC2)c2ccccn2)CS1 (centres unmarked) | 4.95%
O=C(CSc1nncn1-c1ccccc1)Nc1ccccc1F | 19.4%
Cc1ccccc1OCC(=O)NCCc1nc2ccccc2[nH]1 | -9.27%

SMILES | hERG current change (%, negative = inhibition) at 10uM
O=C1CC(c2ccccc2)C(C(=O)Nc2ccccc2F)N1 (centres unmarked) | 9.5%
Cc1ccc(C(=O)OCC(=O)N2CCC(Cc3ccccc3)CC2)cc1N | 12.8%
O=C(CNc1cccc(S(=O)(=O)N2CCCC2)c1)Nc1cccc(F)c1 | -7.87%
O=C(CCl)N1CCN(S(=O)(=O)c2ccc3ccccc3c2)CC1 | -13.6%
CCN1CCN(C(=O)C(C)Nc2cc(Cl)c(OC)cc2OC)CC1 (centres unmarked) | 17.6%
c1csc(-c2noc(CN3CCc4sccc4C3)n2)c1 | 41.5%
CN(C)c1ccc(NC(=O)CCCCCn2nnc3ccccc3c2=O)cc1 | -4.39%
CCn1c(-c2ccccc2)c[nH]c1=S | 15.4%
Cc1ccc2c(CN(C)Cc3cccc(F)c3)cc(=O)oc2c1 | -5.55%
CC(C)(C)CC(C)(C)NCC(=O)Nc1c2c(nc3ccccc13)CCC2.O=C(O)C(=O)O | -3.35%
O=C(CSc1nc2ccccc2c(=O)[nH]1)Nc1ccc(C(=O)O)cc1 | 29.2%
Cc1ccc(C(=O)NNC(=O)CCCN2C(=O)/C(=C/c3ccccc3Cl)SC2=S)cc1 | 11.2%
On1c(-c2ccco2)nc2c1CCc1nonc1-2 | 13.6%
CCOC(=O)C1CCC2(CC1)C(C#N)=C(N)Oc1n[nH]c(C)c12 (centres unmarked) | -14.2%
CC(C)NC(=O)c1ccccc1NC(=O)/C=C/c1cccc([N+](=O)[O-])c1 | 5.05%
COc1ccccc1NC(=O)COC(=O)c1cc2ccccc2cc1O | -8.35%
CCC(=O)Nc1nnc(SCC(=O)NCc2ccc3c(c2)OCO3)s1 | -42%
CC(=O)c1sc(NC(=O)COc2ccc(Cl)cc2C)nc1C | 12.6%
O=C(Nc1ccc(F)cc1)c1cc(-c2ccncc2)nc2c(Cl)cccc12 | -27.5%
O=C(CCCc1nc(-c2ccc(Cl)cc2)no1)Nc1cccnc1 | -24.6%
